The whole screen tested about 360,000 compounds, of which about 16,000 (4.4%) were called active. The shares of active, inactive and inconclusive entries below differ from those in the screen. Calls come from the whole dose curve; as a rule, active = well fitted inhibition curve with a large enough effect; inconclusive = small, poorly fitted or top-dose-only effect; inactive = no such curve, though single readings can be large or run the other way. Where the call is inconclusive, the potency comes from a doubtful curve fit.
The compounds below were run against Bromodomain adjacent to zinc finger domain protein 2B (Homo sapiens) (UniProt Q9UIF8) (assay: qHTS Assay for Inhibitors of BAZ2B). Details: AlphaScreen BAZ2B-H3K14Ac peptide displacement; activity change, negative = inhibition: at 114 µM (top of the series).
Chain of UniProt Q9UIF8 (Q9UIF8 whole entry, looked up, the tested form may be a part): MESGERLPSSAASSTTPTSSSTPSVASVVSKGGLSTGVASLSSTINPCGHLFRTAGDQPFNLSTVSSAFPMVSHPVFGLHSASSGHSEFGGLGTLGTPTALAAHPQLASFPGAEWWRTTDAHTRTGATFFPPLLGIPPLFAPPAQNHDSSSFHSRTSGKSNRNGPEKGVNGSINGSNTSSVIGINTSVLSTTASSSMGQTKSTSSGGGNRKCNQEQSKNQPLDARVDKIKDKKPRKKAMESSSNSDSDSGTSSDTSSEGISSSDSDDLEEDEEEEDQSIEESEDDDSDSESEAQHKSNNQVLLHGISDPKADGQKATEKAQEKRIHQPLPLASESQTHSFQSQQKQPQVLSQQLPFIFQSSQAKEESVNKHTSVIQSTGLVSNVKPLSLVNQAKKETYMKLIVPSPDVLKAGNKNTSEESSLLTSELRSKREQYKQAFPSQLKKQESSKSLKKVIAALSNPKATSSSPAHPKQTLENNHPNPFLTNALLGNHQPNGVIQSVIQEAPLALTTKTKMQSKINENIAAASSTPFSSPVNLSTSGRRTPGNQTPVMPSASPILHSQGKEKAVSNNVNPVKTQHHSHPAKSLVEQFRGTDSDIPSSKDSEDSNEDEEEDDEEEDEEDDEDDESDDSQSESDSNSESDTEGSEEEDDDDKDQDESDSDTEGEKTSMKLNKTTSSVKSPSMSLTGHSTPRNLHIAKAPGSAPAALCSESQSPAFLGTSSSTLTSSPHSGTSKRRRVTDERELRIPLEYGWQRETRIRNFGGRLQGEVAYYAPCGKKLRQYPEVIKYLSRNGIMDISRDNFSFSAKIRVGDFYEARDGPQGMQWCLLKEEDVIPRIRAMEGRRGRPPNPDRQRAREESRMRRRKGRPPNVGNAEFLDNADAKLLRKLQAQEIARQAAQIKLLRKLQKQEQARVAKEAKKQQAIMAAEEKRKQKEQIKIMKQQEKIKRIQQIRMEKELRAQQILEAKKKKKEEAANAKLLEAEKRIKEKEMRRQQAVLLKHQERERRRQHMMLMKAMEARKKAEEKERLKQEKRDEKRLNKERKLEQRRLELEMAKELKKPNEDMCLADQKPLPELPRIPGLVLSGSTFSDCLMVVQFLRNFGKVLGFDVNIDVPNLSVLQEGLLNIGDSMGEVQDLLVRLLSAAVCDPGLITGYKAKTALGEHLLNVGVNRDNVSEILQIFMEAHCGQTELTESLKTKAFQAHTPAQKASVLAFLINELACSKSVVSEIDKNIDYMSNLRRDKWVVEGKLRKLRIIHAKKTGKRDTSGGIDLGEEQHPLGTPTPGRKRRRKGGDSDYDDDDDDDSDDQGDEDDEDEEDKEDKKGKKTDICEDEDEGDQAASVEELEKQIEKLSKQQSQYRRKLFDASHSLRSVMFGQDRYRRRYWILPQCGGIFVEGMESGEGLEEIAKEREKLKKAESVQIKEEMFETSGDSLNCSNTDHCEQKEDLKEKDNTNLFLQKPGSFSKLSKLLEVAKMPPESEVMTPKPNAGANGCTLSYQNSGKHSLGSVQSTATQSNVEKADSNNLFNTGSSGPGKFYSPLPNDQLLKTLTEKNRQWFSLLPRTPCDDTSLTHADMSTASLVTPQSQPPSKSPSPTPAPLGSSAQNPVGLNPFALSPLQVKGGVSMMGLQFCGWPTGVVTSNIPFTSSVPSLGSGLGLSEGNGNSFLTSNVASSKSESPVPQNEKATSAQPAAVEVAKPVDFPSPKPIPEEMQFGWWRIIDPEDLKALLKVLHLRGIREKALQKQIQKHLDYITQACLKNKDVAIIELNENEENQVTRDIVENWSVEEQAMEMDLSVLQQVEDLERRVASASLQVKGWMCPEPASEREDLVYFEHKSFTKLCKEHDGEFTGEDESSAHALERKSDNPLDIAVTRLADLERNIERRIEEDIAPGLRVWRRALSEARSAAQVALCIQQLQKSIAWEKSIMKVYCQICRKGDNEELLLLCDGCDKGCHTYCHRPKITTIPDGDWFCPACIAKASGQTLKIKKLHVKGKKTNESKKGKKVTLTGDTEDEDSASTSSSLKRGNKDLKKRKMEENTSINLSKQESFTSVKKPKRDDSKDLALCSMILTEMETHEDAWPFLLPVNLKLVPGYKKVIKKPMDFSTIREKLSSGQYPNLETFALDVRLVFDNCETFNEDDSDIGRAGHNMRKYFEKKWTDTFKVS
Outline: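 Multi-concentration screen (max 110 uM) measuring displacement of acetylated histone H3 peptide from BAZ2B by AlphaScreen, using 50 nM protein, 50 nM peptide and 10 ug/mL streptavidin donor plus Ni-chelate acceptor beads.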
% is set by controls: 0 for no effect and ±100 for the full control effect; potency is the fitted concentration of half-maximal effect; tags give direction and shape of the fitted curve.
Note: nearly all actives have a fitted effect of over 60% in size.

Row | SMILES | Potency | activity change, negative = inhibition
1 | O=C(CN1CCCCCC1)Nc1ccccc1 | active: 50.1 µM | –
2 | COc1ccc(C(=O)Nc2nnc(Cc3cccs3)s2)cc1OC | – | inactive: -2.27%
3 | Cc1ccc2c(c1)c1c3n2CCN(C=O)C3CCC1 (centres undefined) | inconclusive: 50.1 µM [inhibitor, partial curve] | –
4 | COc1cccc(C(=O)Nc2ccc(NC(=O)C3CC=CCC3C(=O)O)cc2)c1 (centres undefined) | – | inactive: -1.55%
5 | Cc1ccn2cc(-c3ccc(O)c(O)c3)nc2c1 | active: 70.8 µM | –
6 | Cc1ccc(N2C(=O)C3C(C2=O)C(C(=O)c2ccc(Cl)cc2)N2CCCC32)cc1 (centres undefined) | inconclusive: 89.1 µM [inhibitor, single point] | –
7 | Cn1c(=O)[nH]c(=O)c2c1nc(N1CCCCCC1)n2CCCSc1nc2ccccc2o1 | inconclusive: 50.1 µM [inhibitor, partial curve] | –
8 | COc1ccc(C(=O)Nc2ccc(C3=NNC(=O)CC3C)cc2NC(=O)c2ccc(OC)cc2)cc1 (centres undefined) | inconclusive: 70.8 µM [inhibitor, single point] | –
9 | CC(=O)C1=C(O)C(=O)N(CO)C1c1ccccc1F (centres undefined) | inconclusive: 79.4 µM [inhibitor, single point] | –
10 | O=C(CSc1nc(NS(=O)(=O)c2ccccc2)cc(=O)[nH]1)Nc1ccccc1Cl | inconclusive: 100 µM [inhibitor, single point] | –
11 | N#Cc1ccc(OC(=O)c2cnccn2)cc1 | active: 79.4 µM | –
12 | O=C(/C=C/c1ccccc1[N+](=O)[O-])N1CCN(c2ccc(F)cc2)CC1 | inconclusive: 50.1 µM [inhibitor, partial curve] | –
13 | Cc1ccc(C)c(NC(=O)CCc2nnc3ccc(NCc4ccco4)nn23)c1 | inconclusive: 79.4 µM [inhibitor, single point] | –
14 | Cc1cc(C)cc(N(C(=O)CNC(=O)c2ccco2)C(C(=O)NC2CCCCC2)c2ccncc2)c1 (centres undefined) | – | inactive: -7.58%
15 | CCN1CCCC1CNC(=O)c1c(O)c2c([nH]c1=O)CCCC2 (centres undefined) | inconclusive: 89.1 µM [inhibitor, single point] | –
16 | CCOC(=O)c1c(C2COc3ccccc3O2)csc1N (centres undefined) | inconclusive: 89.1 µM [inhibitor, single point] | –
17 | Cc1cc(C)cc(NC(=O)CN2CCc3cc4c(cc3C2C)OCCCO4)c1 (centres undefined) | inconclusive: 79.4 µM [inhibitor, partial curve] | –
18 | COc1ccc(C(CC(=O)N2CCCC(C)C2)c2c(OC)cc(OC)c3c(-c4ccccc4)cc(=O)oc23)cc1 (centres undefined) | active: 44.7 µM | –
19 | CCCCNC(=S)N(CCCN(C)C)Cc1cc2cc3c(cc2[nH]c1=O)OCO3 | inconclusive: 89.1 µM [inhibitor, single point] | –

From PubChem BioAssay AID504333 (National Center for Advancing Translational Sciences (NCATS), 2011)
